Laboratory results published in PMC12136788.
The other results are listed elsewhere or left out.

B1: ENSG00000070961:be:win_2151|CDS|ENSG00000070961|bound_else_gene|NA|bound_elsewhere_windowed (ssRNA)
RNA: GGGAGUUCUACAGUCCGACGAUCCAUUGCUACCAAAUGUGGUAUUUUACAUCCUGGGGAAGAUUUUCUGUGCCUAGAAGGUAAAGAUUUUAACAGAAGAAUACGAAAUGAAAAAGGAGAGAUUGAGCAAGAGAGGAUAGACAACAACAGAGGAUUGAGCAUCA
B2: chr15:43617570:43618356:-|three_prime_utr|ENSG00000284772|control|control|control (ssRNA)
RNA: GGGAGUUCUACAGUCCGACGAUCUACAUUCCUGGCCAACAUUUCUUCUUCCUUUGAGCCUGGGAGAAUGGGGGAAGGACCAGUAGGAGAGCCCCCACCUCUCCAGCCGCCUGCUCUGCGGCUCCAUGAUUUUCUAGUGACACUCAACAGAGGAUUGAGCAUCA
B3: chrX:85271413:85271529:+|CDS|ENSG00000147180|unk|total|mutant (ssRNA)
RNA: GGGAGUUCUACAGUCCGACGAUCUGUGAUAAAGGUUUUCAUCGUCCUUCUGAGCUCAAAAAGCACCGUGAUAUCCAUAAGGGCCGGAAGAUUCAUCAGUGCAGGCACUGUGACUUUAAAACAUCCGAUCCAUUUAUUCUCCGUCAACAGAGGAUUGAGCAUCA
B4: chr1:168200228:168200338:+|3pUTR|ENSG00000143155|unk|total|mutant (ssRNA)
RNA: GGGAGUUCUACAGUCCGACGAUCUAUUUUCUGGAGUUAAAUUUGGAUGAUUUCUAAAUUAUCACAAAGUGGGACCUCAGCAGCCGUGAUGUGUGUGUCUCAUGAGCAGUGAGCACAGUCUGCAUUCAUCAUGAAACACUAUCUCAACAGAGGAUUGAGCAUCA
B5: ENSG00000101945:stop:overlap|stop_codon|ENSG00000101945|stop_codon|NA|stop_codon (ssRNA)
RNA: GGGAGUUCUACAGUCCGACGAUCAGAAGCGGGUCCGUAUUGAAUGCAAGUGUGGGACUGAGUCCUGCCGCAAAUACCUCUUCUAGCCCUUAGAAGUCUGAGGCCAGACUGACUGAGGGGGCCUGAAGCUACAUGCACCUCCCCCAACAGAGGAUUGAGCAUCA
B6: ENSG00000070961:be:win_501|CDS|ENSG00000070961|bound_else_gene|NA|bound_elsewhere_windowed (ssRNA)
RNA: GGGAGUUCUACAGUCCGACGAUCGUUAGUAACAGCUUUCAAUGACUGGAGUAAGGAAAAACAGUUUAGAGGUUUGCAGAGCCGAAUUGAACAAGAACAGAAGUUCACUGUCAUCAGGGGUGGUCAGGUCAUUCAGAUACCUGUCAACAGAGGAUUGAGCAUCA
B7: chr20:56404979:56405080:+|3pUTR|ENSG00000101138|unk|FALSE|unique (ssRNA)
RNA: GGGAGUUCUACAGUCCGACGAUCCCGCGCCCAGCCUUCCUGAAGCUUUUUAGAACAUGACAGUACUUCUCUGGAUUCAGCACUAGCAGAGUCAGAGAACUCUGAACUCCCCUUGUACAAACAUAAACUUUGCUUUAUAUUUAUCAACAGAGGAUUGAGCAUCA
B8: chr11:83166318:83166419:+|CDS|ENSG00000165494|unk|FALSE|unique (ssRNA)
RNA: GGGAGUUCUACAGUCCGACGAUCGGGACAAAACCAGGGAGAUCGAGUACUAGAAAGCGAUCAAGAUCUCGAUCACCCAAGUCUAGGUCACCAAUUAUACAUUCCCCAAAGAGAAGAGAUAGGCGGUCACCCAAACGAAGGCAACAACAGAGGAUUGAGCAUCA
B9: chr14:71723713:71723820:+|CDS|ENSG00000197555|unk|total|mutant (ssRNA)
RNA: GGGAGUUCUACAGUCCGACGAUCGCUGCCCCCUCACAGCUCGCACCAUCCUUCUCCUCCUCUUCCUCCUCCUCCUCUGGUCCCCGGAGUUUUUACCCUCGCCAGGGCGCUACCCGCAAGUACCUGAUUGGAUGGAAAAAACCCCAACAGAGGAUUGAGCAUCA
B10: ENSG00000198589:be:win_8451|CDS_3pUTR|ENSG00000198589|bound_else_gene|NA|bound_elsewhere_windowed (ssRNA)
RNA: GGGAGUUCUACAGUCCGACGAUCGCUGUCUUACGACCAGAGGUGCAUCAUUUCUGGCAUGGCUUCAGGAAGCAUUGUGCUAUUUUACAACGACUUUAACCGGUGGCAUCAUGAAUACCAAACCCGCUACUGAUGGUGACAGCUCAACAGAGGAUUGAGCAUCA
B11: chr16:21843385:21843581:-|three_prime_utr|ENSG00000185864|control|control|control (ssRNA)
RNA: GGGAGUUCUACAGUCCGACGAUCGGAAAUAAAAUUGUCCUGAAAGACGUCAUUACUCUACGGAGACAUGUGGAAACAAAAGUUAGAGCUAAAAUCCGUAAGAGGAAGGUGACAACGAAAAUCAACCAUCAUGACAAAAUCAAUCAACAGAGGAUUGAGCAUCA
B12: chr2:73700624:73701305:-|CDS|ENSG00000204872|control|control|control (ssRNA)
RNA: GGGAGUUCUACAGUCCGACGAUCACCGUGGUCAGGGGAUAGCAAAAGCCCUGGUCAGGACUGUCCUCCAGUUUGCCCGGGACUAGGGCUACAGUGAAGUUGUCCUGGACACCAGCAACAUCCAGCUCUCUGCCAUGGGCCUCUCAACAGAGGAUUGAGCAUCA
B13: chr11:35231809:35232301:+|3pUTR|ENSG00000026508|msi1|total|mutant (ssRNA)
RNA: GGGAGUUCUACAGUCCGACGAUCACAACACCAAGAAUUGAUUUUGCCGCCAACAUUCAUUCAAUACUGUUAUAUCAGAGGAGCCGGAGAGAGGAAACAUUUGACUUAUCUGGAAAAGCAAAAUGUACUUAAGAAUAAGAAUAACAACAGAGGAUUGAGCAUCA
B14: chr11:108106880:108106981:+|3pUTR|ENSG00000166266|msi1|total|mutant (ssRNA)
RNA: GGGAGUUCUACAGUCCGACGAUCUCCGUGGUAUGGCAAUAAGACACUUCAGAGGCUAUCUUAACCUCUGAAUACCCAUCUUCCCGUUUAAAGACAGAGACAUCCCAUCUGGAAAAUGUUAACUUGUGUUGCCAUCUCGUUGCCCAACAGAGGAUUGAGCAUCA
B15: chr14:70725707:70725808:-|3pUTR|ENSG00000006432|unk|total|mutant (ssRNA)
RNA: GGGAGUUCUACAGUCCGACGAUCGUCGAAUAUCAGCUAUUUCAUAUGGUUCACCCUAAUGUACCUGCCUCUCUCUUUGGCUUCCGGUCUGAGAAUGACUUGUCUUUGUCAAGGUAUACUAUUGUCCGAAACGCAUUACCAAAUCAACAGAGGAUUGAGCAUCA
B16: chr1:32680599:32680700:+|3pUTR|ENSG00000162521|msi1|total|mutant (ssRNA)
RNA: GGGAGUUCUACAGUCCGACGAUCAAGUGCUUAAAAUGGAAUAAAUUGCUUUUCUACAUAACCCCAUGCUGAUGGGUUUUAUUCCGUAUAAAACAUCCAUCAAACACCAGUCUCUGGCUUCCCGAAGAGUCCUUCAGAUGACAGCAACAGAGGAUUGAGCAUCA
B17: chr19:6380113:6380214:-|3pUTR|ENSG00000125651|msi1|total|mutant (ssRNA)
RNA: GGGAGUUCUACAGUCCGACGAUCACUUCAGGCUCUCAGUGACCCUUCGACAUCCUGCUUGCUCCCUGACUCCCAGGGCCCCGCCGUCCGCAAUUCUGGAAAAGUUAAGCCAUCUCCUCCUCUGGCCCUUCCUUCUGGAAUCUUCAACAGAGGAUUGAGCAUCA
B18: chr1:117368288:117368465:+|CDS|ENSG00000198162|unk|total|mutant (ssRNA)
RNA: GGGAGUUCUACAGUCCGACGAUCUUUUGGGGCAUUCUUUUUCCUUCCAGACUCUUCAAAACACAAACGCUUUGAUUUGGGUUCCGAAGAUGUGUUAAUUCCACAUGCCGAUGCCGGUAAAGGGGCUAAAAACCCCGGAGUCUUCAACAGAGGAUUGAGCAUCA
B19: chr7:139079551:139079652:-|CDS|ENSG00000105939|unk|total|mutant (ssRNA)
RNA: GGGAGUUCUACAGUCCGACGAUCAAUGCUGAUGGAGUGGCCACAGAUAUAACUUCUACCAGAUCCUUAAAUUACAAAAGCACCCGCAGCGGUCACAGAGAAAUAUCAUCACCCCGGAUUCAGGAUGCUGGACCUGCUUCCCGACAACAGAGGAUUGAGCAUCA
B20: chr12:39550845:39550946:-|3pUTR|ENSG00000173208|unk|total|mutant (ssRNA)
RNA: GGGAGUUCUACAGUCCGACGAUCGGUUCCAAGUACCGUUUCAUAUUUGGCAACCGAUUCAUCUUAUUCUAAUAUGUUUGGAACCGCUUUUUGAUUCAAUGAGUCCCGGAAAAUCUGUUACACAUUGAAACCCAAGUCCAGAGACAACAGAGGAUUGAGCAUCA
B21: chr1:162785649:162785750:+|3pUTR|ENSG00000162733|unk|total|mutant (ssRNA)
RNA: GGGAGUUCUACAGUCCGACGAUCUGAAUGUUGUUUUUUUGAAUGAACAUAAGACCGAAACAAAAACUUCUCAUCCAGUUAACCCGAGUGAAUGCCGGGAGAAUUGUUUUGCUUGUAACAUGGAGAGUUUAUUUUCAAGUGAGGCAACAGAGGAUUGAGCAUCA
B22: chr2:9585027:9585123:-|3pUTR|ENSG00000134308|msi1_unk|FALSE|overlapping (ssRNA)
RNA: GGGAGUUCUACAGUCCGACGAUCGGAAAACUUCAUUCCUUGAUUUGUGUUUGUCUUGGCCUUCCUGGUGUGCAGUACUGCUGUAGAAAAGUAUUAAUAGCUUCAUUUCAUAUAAACAUAAGUAACUCCCAAACACUUAUGUAGCAACAGAGGAUUGAGCAUCA

Biological target: MSI1 full-length (mouse, UniProt Q61474 1-362)
Test: nsRBNS (natural sequence RNA bind-n-seq); RBNS binding buffer (assumed for nsRBNS): 25 mM Tris pH 7.5, 150 mM KCl, 3 mM MgCl2, 0.01% Triton X-100, 500 ug/ml BSA, 20 U/ml SUPERase-In, 4 C; UNK is unkempt and MSI1 is Musashi-1; names of the RNAs are library labels; protein concentration not given here; high values mean tight binding

UniProt Q61474, sequence (Q61474 whole entry): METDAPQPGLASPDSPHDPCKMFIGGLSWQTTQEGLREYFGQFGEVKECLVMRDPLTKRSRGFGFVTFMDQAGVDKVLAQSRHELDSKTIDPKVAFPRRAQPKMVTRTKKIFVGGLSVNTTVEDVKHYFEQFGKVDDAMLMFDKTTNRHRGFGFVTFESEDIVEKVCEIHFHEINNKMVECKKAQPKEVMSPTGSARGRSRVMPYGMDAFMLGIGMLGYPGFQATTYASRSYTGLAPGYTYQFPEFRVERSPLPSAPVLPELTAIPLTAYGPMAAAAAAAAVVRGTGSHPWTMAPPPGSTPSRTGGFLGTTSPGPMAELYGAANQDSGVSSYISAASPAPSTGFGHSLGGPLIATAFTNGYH

Q: With B1 as the binder, how does the binding signal read?
A: The binding signal was 0.434 enrichment R.

Q: Which binding signal does the source give for B2 here?
A: Its binding signal is 0.524 enrichment R.

Q: With B3 as the binder, how does the binding signal read?
A: The binding signal was 0.319 enrichment R.

Q: B4 was tested. Which binding signal did it give?
A: The binding signal was 0.333 enrichment R.

Q: How did the binding signal turn out when B5 was run?
A: Its binding signal is 0.457 enrichment R.

Q: How did the binding signal turn out when B6 was run?
A: The binding signal was 0.9 enrichment R.

Q: With B7 as the binder, how does the binding signal read?
A: Its binding signal is 1.17 enrichment R.

Q: With B8 as the binder, how does the binding signal read?
A: Its binding signal is 0.436 enrichment R.

Q: With B9 as the binder, how does the binding signal read?
A: Its binding signal is 0.786 enrichment R.

Q: For B10, which binding signal is on record?
A: Its binding signal is 0.256 enrichment R.

Q: For B11, which binding signal is on record?
A: The binding signal was 0.194 enrichment R.

Q: Which binding signal does the source give for B12 here?
A: Its binding signal is 0.459 enrichment R.

Q: B13 was tested. Which binding signal did it give?
A: Its binding signal is 0.457 enrichment R.

Q: B14 was tested. Which binding signal did it give?
A: Its binding signal is 0.282 enrichment R.

Q: B15 was tested. Which binding signal did it give?
A: The binding signal was 0.412 enrichment R.

Q: B16 was tested. Which binding signal did it give?
A: Its binding signal is 0.302 enrichment R.

Q: Which binding signal does the source give for B17 here?
A: The binding signal was 0.582 enrichment R.

Q: Which binding signal does the source give for B18 here?
A: Its binding signal is 0.34 enrichment R.

Q: For B19, which binding signal is on record?
A: Its binding signal is 0.516 enrichment R.

Q: Which binding signal does the source give for B20 here?
A: Its binding signal is 0.173 enrichment R.

Q: With B21 as the binder, how does the binding signal read?
A: The binding signal was 0.221 enrichment R.

Q: Which binding signal does the source give for B22 here?
A: Its binding signal is 1.57 enrichment R.
